PubChem BioAssay AID1508623 (National Center for Advancing Translational Sciences (NCATS), 2021)
In all, about 48,000 compounds went through this assay and about 450 (0.94%) were called active. Inconclusive results (about 19%) are left out. Calls follow the shape of the dose curve; as a rule, active = well fitted inhibition curve with a large enough effect; inconclusive = small, poorly fitted or top-dose-only effect; inactive = no such curve, though single readings can be large or run the other way. The list shows a part of the results.

Test: Primary qHTS for Identification of Small Molecule Inhibitors of Huntingtin Promoter Activity; also: nearly all actives have a fitted effect of over 50% in size
Conditions: HEK293 HTT promoter firefly luciferase reporter (activity 0% = vehicle and -100% = no light), 24 h; series mostly up to 57.5 µM; activity change, negative = inhibition: at the top concentration
Summary of the method: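 Firefly luciferase signal from promoter-reporter HEK293 cells was scaled between vehicle (0%) and zero RLU (-100%). Compounds were tested at final concentrations of up to 57.5 uM over 24 h at 37 degrees C. PTC124 at 50 uM final served as control inhibitor.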
Potency is read from the fitted curve at half-maximal effect.

SMILES	activity change, negative = inhibition	Potency
COc1ccc(Cl)cc1Nc1cc(C)nc2nc(-c3ccccc3C)nn12	inactive: -3.62%	–
CN(C)c1ccc(C(CNC(=O)c2cccc(C(F)(F)F)c2)N2CCCC2)cc1 (configuration not stated)	inactive: -17.4%	–
CCOc1ccc(NC(=O)C2CCN(S(=O)(=O)c3c(C)noc3/C=C/c3c(C)cc(C)cc3C)CC2)cc1	inactive: -20.3%	–
CCCCCCCC/C=C\CCCCCCCCN	inactive: 7%	–
Cc1ccc(CNc2ncnc3c2c(-c2ccccc2)cn3-c2ccccc2)cc1	inactive: -15.6%	–
CCCC(=O)Nc1cccc(-c2cn3cccnc3n2)c1	inactive: 31.4%	–
CCCC(CCC)C(=O)O	inactive	–
CCN(CC)c1ccc(NC(=O)c2sc3ccccc3c2Cl)cc1	inactive: 21.9%	–
CC(C)[N+](C)(C)CC(O)COc1cccc2ccccc12 (configuration not stated)	inactive: 2.7%	–
CCCn1c(=N)c(C(=O)NCc2cccnc2)cc2c(=O)n3ccccc3nc21	inactive: -6.93%	–
CCOC(=O)c1cc(OC(=O)c2ccc(OC)cc2)n(-c2ccccc2)n1	inactive: 1.69%	–
COc1ccc(NC(=O)C(Cc2ccccc2)NS(=O)(=O)c2ccc3c(c2)CCN3C(C)=O)cc1 (configuration not stated)	inactive: -12.3%	–
Cc1ccc(C)c(CNC(=O)c2ccc3c(c2)nc2n3CCC(C)C2)c1 (configuration not stated)	inactive: 20.6%	–
Cc1ccc(N(C)S(=O)(=O)c2nnc(NC(=O)CC(C)C)s2)cc1	inactive: 5%	–
CCOC(=O)Cc1ccc(NC(=O)Nc2cc3c(cc2N2CCCCC2)n(C)c(=O)n3C)cc1	inactive: -15.4%	–
CN(C)CCCC1(c2ccc(F)cc2)OCc2cc(C#N)ccc21 (configuration not stated)	inactive: -16.9%	–
CCOC(=O)c1cc2c(=O)n3ccccc3nc2n(C)c1=NC(=O)c1c(-c2ccccc2Cl)noc1C	inactive: -2.36%	–
COc1ccc(-n2cc(C(=O)Nc3cc(F)ccc3F)c3ccccc3c2=O)cc1	inactive: -9.29%	–
CCCCOC(=O)c1ccc(NC(=O)CC2NCCNC2=O)cc1 (configuration not stated)	inactive: 7.33%	–
COCCCNC(=O)C1CCC(CNS(=O)(=O)c2ccc(OC)cc2)CC1 (configuration not stated)	inactive: -16.2%	–
COc1cccc(CNC(=O)C2CCN(Cc3cc4ccccc4n3Cc3ccc(C)cc3)CC2)c1	inactive: -9.31%	–
COc1ccc2oc(=O)c(C(=O)Nc3cccc(C(=O)O)c3)cc2c1	–	active: 3.98 µM
COc1cc(-c2cc3n(C)c(C)c(CCC(=O)NCc4ccccc4)c(=O)n3n2)cc(OC)c1OC	inactive: 2.44%	–
Cc1nc2c(-c3ccccc3)c(C)nn2c(C)c1CCC(=O)NCc1ccc(Cl)cc1	inactive: -10.1%	–
Cc1ccc(CNC(=O)CCCN2C(=O)CCn3nc(-c4cn(C)c5ccccc45)cc32)cc1	inactive: 0%	–

SMILES	activity change, negative = inhibition	Potency
COc1ccc(NC(=O)CC2C(=O)N(c3ccccc3)C(=O)N2C2CCCCC2)cc1 (configuration not stated)	inactive: -20.1%	–
CCOC(=O)c1nnn(CC(=O)Nc2cc(C)cc(C)c2)c1C(=O)OCC	inactive: -24.5%	–
CCOC(=O)c1ccc(NC(=O)c2nc(SC(C)C)ncc2Cl)cc1	inactive: -28.8%	–
Cc1ccc(C)c(Cn2cnc3c(cnn3-c3ccc(F)cc3)c2=O)c1	inactive: -1.51%	–
Cn1nc(C(=O)NCc2ccc(F)cc2)c2c1-c1ccccc1SC2	inactive: -14.8%	–
Cc1cc(-c2ccccc2)n2nc(-c3cccc(Br)c3)cc2n1	inactive: -19.4%	–
CC1CCN(C(=O)CN2c3ccc(C(C)C)cc3-c3ccccc3S2(=O)=O)CC1	inactive: 12.8%	–
Cc1ccc(-c2c(C(=O)NCc3ccc(F)cc3)oc(=O)c3ccccc23)cc1	inactive: -11.4%	–
CC(=O)c1cccc(NC(=O)c2oc(=O)c3ccccc3c2-c2ccccc2)c1	inactive: -21.1%	–
CC(C)CN(CCNC(=O)c1cn(C)c2ccc(S(=O)(=O)N3CCOCC3)cc2c1=O)CC(C)C	inactive: -21.3% [at 11.5 µM]	–
CSCCC(NS(=O)(=O)c1ccc2c(c1)oc(=O)n2C)C(=O)NCc1ccccc1 (configuration not stated)	inactive: -10.6%	–
Cc1ccc2cccc(NC(=O)c3ccc(-c4cccc(Cl)c4Cl)o3)c2n1	inactive: -4.02%	–
COc1ccc(CCCc2nnc(SCC(=O)Nc3ccc(F)cc3)o2)cc1C	inactive: -5.84%	–
CSc1ccc(C(=O)Nc2ccc(-c3nc4ccccc4s3)c(O)c2)cc1	inactive: -2.77%	–
COc1ccc2c(c1)c1c(c(=O)n(Cc3ccccc3)c(=O)n1CC(=O)NCc1ccc(C)cc1)n2C	inactive: -9.62%	–
Cc1ccc(C)c(N2CCN(C(=O)c3ccc(Nc4nc5ccccc5n5nnnc45)cc3)CC2)c1	inactive: 15.7%	–
COc1ccc(N2CCN(C(=O)CCC(=O)NNc3nc4ccccc4c4nc(C)nn34)CC2)cc1	inactive: -25.7%	–
Cc1ccc(OCc2nnc(SCC(=O)Nc3ccccc3C(C)C)o2)cc1	inactive: -27.9%	–
CCc1ccc(NC(=O)c2ccc3nc(C(C)C)oc3c2)cc1	inactive: -21.3%	–
COc1cc(OC)c(NC(=O)Cn2c(=O)cc(C)c3c(C)nn(-c4ccc(C)cc4)c32)cc1Cl	inactive: 0%	–
CSc1ccc(-c2nc3c(C)cccn3c2Nc2ccc3c(c2)OCCO3)cc1	inactive: -3.23%	–
CCOC(=O)N1CCC2(CC1)OC(=O)C(C)=C2C(=O)NCc1ccc(C)cc1	inactive: -2.58%	–
CCNC(=O)c1ccc(CSc2nc3cccnc3n2Cc2ccc(OC)cc2)cc1	inactive: -24.1%	–
COC(=O)Cn1ccc2cc(S(=O)(=O)N3CCCCCC3)ccc21	inactive: -23.1%	–
CCN(C(=O)CN1C(=O)COc2ccc(S(=O)(=O)N3CCOCC3)cc21)c1cccc(C)c1	inactive: 2.53%	–

SMILES	activity change, negative = inhibition	Potency
COC(=O)c1ccc(NC(=O)Cn2c(-c3nonc3N)nc3ccccc32)cc1	inactive: -0.366%	–
CCCc1cnc2c(c1SCC(=O)Nc1c(C)cc(C)cc1C)c(=O)n(C)c(=O)n2C	inactive: -11.4%	–
Cc1nn(CC(=O)N2CCC(C)CC2)c(=O)c2cc3occc3n12	inactive: -6.2%	–
FC(F)(F)c1ccc(C2=Nc3ccccc3NC(c3cccs3)=N2)cc1	inactive: -35.7%	–
COc1ccc(F)cc1NC(=O)C1CCN(c2nc(-c3ccc(OC)c(OC)c3)no2)CC1	inactive: 37.9%	–
Cc1ccc(-n2nc(C)c3c(C)cc(=O)n(CC(=O)NCc4ccc(OC(C)C)cc4)c32)cc1	inactive: -16.3%	–
O=C(COc1ccc(F)cc1)Nc1cccc(OCc2cc(=O)n3ccccc3n2)c1	inactive: 57.5%	–
COc1ccc(Nc2ncc(C(=O)Nc3cc(C)ccc3OC)c3ccccc23)cc1	inactive: -18.3%	–
Cc1ccc2c(c1)c1c(c(=O)n(-c3ccccc3C)c(=O)n1Cc1ccccc1F)n2C	inactive: -17.5%	–
COc1ccc(NC(=O)CCc2c(C)nc3c(-c4ccccc4)c(C)nn3c2C)cc1Cl	inactive: -24.7%	–
Cn1c(C(=O)NCc2ccc(Cl)cc2)cc2c(=O)n(C)c3ccccc3c21	inactive: 11%	–
Cc1ccc(NC(=O)c2ccc(=O)n(CC(=O)Nc3cc(C)cc(C)c3)n2)cc1	inactive: -13.2%	–
Fc1ccc(-n2ncc3c(Nc4ccc(Oc5ccccc5)cc4)ncnc32)cc1	inactive: 0.739%	–
CC(=O)Nc1cccc(-c2nnc(SCC(=O)c3cc([N+](=O)[O-])ccc3Br)o2)c1	inactive: 0.0183%	–
COc1cc(C(c2c(C)[nH][nH]c2=O)c2c(C)[nH][nH]c2=O)ccc1OC(=O)c1ccccc1F	inactive: -15% [at 11.5 µM]	–
CC(=O)Nc1ccc(NC(=O)CSc2nnc3c4cc(Br)ccc4n(C)c3n2)cc1	inactive: -14.8%	–
COC(=O)c1ccc2oc(=O)c(S(=O)(=O)c3ccc(C)cc3)cc2c1	inactive: -13.9%	–
CCCC(=O)Nc1cccc(-c2nc3cc(C)c(C)cc3o2)c1C	inactive: -6.12%	–
Cc1ccc(CNC(=O)C2CCN(c3nc4ccc(C)cc4[nH]3)CC2)cc1	inactive: 0.879%	–
Cc1ccc2c(c1)c1c(c(=O)n(-c3cccc(Cl)c3)c(=O)n1C)n2C	inactive: -10.2%	–
COc1cc(OC)c(NC(=O)c2cnc(N3CCCC3)nc2C)cc1Cl	inactive: -12%	–
CCSc1ncc(Cl)c(C(=O)Nc2sc(C(C)=O)c(C)c2C(=O)OC)n1	inactive: -8.18%	–
O=C(CCc1ccc(O)cc1)c1c(O)cc(O)cc1O[C@@H]1O[C@H](CO)[C@H](O)[C@H](O)[C@H]1O	inactive: -6.92%	–
CCOC(=O)c1c(NC(=O)c2cc3nc(-c4ccc(OC)cc4)cc(C(F)(F)F)n3n2)sc(C)c1C	inactive: -0.413%	–
CCc1cccc(NC(=O)c2c(C)oc3ncnc(N4CCCCC4)c23)c1	inactive: -28.7%	–

SMILES	activity change, negative = inhibition	Potency
COc1ccc(C(=O)c2oc3ccccc3c2NC(=O)c2nc(SC)ncc2Cl)cc1Cl	inactive: 5.67%	–
NCCC(O)(P(=O)(O)O)P(=O)(O)O	inactive: 13.7%	–
CCOC(=O)N1CCc2c(sc(NCc3cccs3)c2C(=O)Nc2cc(OC)ccc2OC)C1	inactive: -9.39%	–
CC(C)c1ccc(Nc2cc(C(=O)NCc3cccs3)c3ccccc3n2)cc1	inactive: -4.12%	–
CCOC(=O)c1nnn(C(CC)C(=O)Nc2c(C)cccc2C)c1C(=O)OCC (configuration not stated)	inactive: -6.84%	–
CCN(CC)C(=O)CSc1nnc2[nH]c(=O)cc(C)n12	inactive: -7.05%	–
Cc1ccc(NC(=O)N2CCN(c3nnc(C)c4c(C)n(-c5ccccc5)nc34)CC2)c(Cl)c1	inactive: -7.22%	–
CCNc1nc(Oc2ccc(OCC(=O)OC)nn2)nc(N2CCOCC2)n1	inactive: 0.311%	–
CCc1ccccc1NC(=O)CCCN1C(=O)COc2ccc(C)cc21	inactive: -19.4%	–
CCOc1ccc(-c2cccc(NS(=O)(=O)c3ccc(Cl)s3)c2)nn1	inactive: -8.47%	–
CCOc1ccc2nc(N3CCCC(C(=O)NCc4ccc(OC)cc4)C3)sc2c1 (configuration not stated)	inactive: 15.4%	–
COc1ccc2cc(-c3cn4c(n3)sc3cc(F)ccc34)c(=O)oc2c1	inactive: -0.11%	–
COc1ccc(/C=C/c2onc(C)c2S(=O)(=O)N2CCC(C(=O)N3CCC(C)CC3)CC2)cc1	inactive: -28.1%	–
Cc1ccccc1CSc1nc(-c2ccccc2)nc2c1Cc1c(CO)cnc(C)c1O2	inactive: -15%	–
COc1cccc(C(=O)NCC(c2ccc(N(C)C)cc2)N2CCOCC2)c1OC (configuration not stated)	inactive: 12.6%	–
CC(C)CCNC(=O)N1CCN(S(=O)(=O)c2ccc3c(ccn3C)c2)CC1	inactive: -32.4%	–
CCOC(=O)c1c(S(=O)(=O)N2CCCC(C(=O)Nc3cc(C)ccc3OC)C2)c(C)n(C)c1C (configuration not stated)	inactive: -14.9%	–
CCCCNC(=O)CCn1c(=O)c2ccccc2n(Cc2cc(C)ccc2C)c1=O	inactive: -15.7%	–
COc1cccc(C2=NN(C(C)=O)C(c3cn(-c4ccccc4)nc3-c3cccs3)C2)c1 (configuration not stated)	inactive: -18.1%	–
CC1CCN(S(=O)(=O)c2ccc3c(c2)N(CC(=O)N2CCN(c4ccc(Cl)cc4)CC2)C(=O)CO3)CC1	inactive: -24.4%	–
CC(C[N+](C)(C)C)OC(N)=O (configuration not stated)	inactive	–
Cc1ccc(C)c(N2CCN(C(=O)c3cc(S(=O)(=O)N4CCCCC4)cn3C)CC2)c1	inactive: -30.3%	–
